Data: the supplement of paper PMC8728848
The full list was thinned out, with the strongest signals kept by preference.

Key:
Assay in all cases: glycan array binding signal (z-score within array); higher = stronger binding
Settings in all cases: glycan notation: IUPAC condensed, linker removed
Gal4S6S(b1-4)GlcNAc = molecular target: Gal4S6S(b1-4)GlcNAc
In short: (§1)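 Glycan array binding is given as a within-array Z-score, which can be read as non-binding when negative. The arrays, 3228 of them, came from the Consortium for Functional Glycomics database and were retained only where the protein sequence was available. Z-scores were averaged across arrays of the same protein sequence at different concentrations or buffers and across linkers.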

[1] = molecular target: GalNAc(a1-3)GalNAc(b1-3)Gal(a1-4)Gal(b1-4)Glc
In short: as §1

GalNAc(b1-4)Gal(b1-4)Glc = molecular target: GalNAc(b1-4)Gal(b1-4)Glc
In short: as §1

[2] = molecular target: GalNAc(b1-4)GlcNAc(b1-2)Man
In short: as §1

[3] = molecular target: GalNAc(b1-4)GlcNAc(b1-3)GalNAc(b1-4)GlcNAc
In short: as §1

GalNAc(b1-4)GlcNAc6S = molecular target: GalNAc(b1-4)GlcNAc6S
In short: as §1

GalNAc6S(b1-4)GlcNAc = molecular target: GalNAc6S(b1-4)GlcNAc
In short: as §1

[4] = molecular target: GlcA3S(b1-3)Gal(b1-4)GlcNAc(b1-3)Gal(b1-4)Glc
In short: as §1

[5] = molecular target: GlcNAc(a1-4)Gal(b1-4)GlcNAc(b1-3)Gal(b1-4)[Fuc(a1-3)]GlcNAc(b1-3)Gal(b1-4)[Fuc(a1-3)]GlcNAc
In short: as §1

[6] = molecular target: GlcNAc(b1-2)[GlcNAc(b1-6)]Man(a1-6)[GlcNAc(b1-2)Man(a1-3)]Man(b1-4)GlcNAc(b1-4)[Fuc(a1-6)]GlcNAc
In short: as §1

[7] = molecular target: GlcNAc(b1-3)Gal(b1-4)GlcNAc
In short: as §1

[8] = molecular target: GlcNAc(b1-3)Gal(b1-4)GlcNAc(b1-3)Gal(b1-4)GlcNAc(b1-3)Gal(b1-4)GlcNAc(b1-3)Gal(b1-4)GlcNAc(b1-2)Man(a1-3)[GlcNAc(b1-3)Gal(b1-4)GlcNAc(b1-3)Gal(b1-4)GlcNAc(b1-3)Gal(b1-4)GlcNAc(b1-3)Gal(b1-4)GlcNAc(b1-2)Man(a1-6)]Man(b1-4)GlcNAc(b1-4)[Fuc(a1-6)]GlcNAc
In short: as §1

[9] = molecular target: GlcNAc(b1-3)Gal(b1-4)GlcNAc(b1-6)[GlcNAc(b1-3)Gal(b1-3)]GalNAc
In short: as §1

GlcNAc(b1-6)GalNAc = molecular target: GlcNAc(b1-6)GalNAc
In short: as §1

[10] = molecular target: Man(a1-2)Man(a1-3)[Man(a1-2)Man(a1-6)]Man(a1-6)[Man(a1-2)Man(a1-2)Man(a1-3)]Man(b1-4)GlcNAc(b1-4)GlcNAc
In short: as §1

Man(b1-4)GlcNAc = molecular target: Man(b1-4)GlcNAc
In short: as §1

[11] = molecular target: Neu5Ac(a2-3)Gal(b1-3)GalNAc6S
In short: as §1

[12] = molecular target: Neu5Ac(a2-3)Gal(b1-4)[Fuc(a1-3)]GlcNAc(b1-3)Gal(b1-4)GlcNAc
In short: as §1

Neu5Ac(a2-3)GalNAc = molecular target: Neu5Ac(a2-3)GalNAc
In short: as §1

[13] = molecular target: Neu5Ac(a2-6)Gal(b1-4)GlcNAc(b1-3)Gal(b1-3)GlcNAc
In short: as §1

Neu5Ac(a2-6)GalNAc = molecular target: Neu5Ac(a2-6)GalNAc
In short: as §1

[14] = molecular target: Neu5Ac(a2-8)Neu5Ac(a2-3)[GalNAc(b1-4)]Gal(b1-4)Glc
In short: as §1

[15] = molecular target: Neu5Ac(a2-8)Neu5Ac(a2-8)Neu5Ac
In short: as §1

[16] = molecular target: Neu5Ac9Ac(a2-3)Gal(b1-4)GlcNAc
In short: as §1

B1: mASGPR (Macaca mulatta) (protein)
chain: GASSQNSKFQRDLVTLRTDFSNFTSNTVAEIQALTSQGSSVEEMIASLKAEVEVIKQEQQAVHSEMLLRVQRLMQDLNKLTCQVATLKNNASTERTCCPVNWVEHQDSCYWFSRSGMPWAEAEKHCQLENAHLVVINSREEQNFVQEHLSFAYTWMGLSDREGAWKWVDGTDYETGFQNWKPGQPDDWQGHGLGGGEDCAHFHPDGRWNDDVCQRPYYWVCEAGLTQASQESHT[in this place human IgG1 Fc]
glycan array binding signal (z-score) (Gal4S6S(b1-4)GlcNAc): -0.57
glycan array binding signal (z-score) [1]: 1.89
glycan array binding signal (z-score) (GalNAc(b1-4)Gal(b1-4)Glc): 0.433
glycan array binding signal (z-score) [2]: 2.44
glycan array binding signal (z-score) [3]: 1.97
glycan array binding signal (z-score) (GalNAc(b1-4)GlcNAc6S): 2.72
glycan array binding signal (z-score) (GalNAc6S(b1-4)GlcNAc): 2.46
glycan array binding signal (z-score) [4]: -0.765
glycan array binding signal (z-score) [5]: 0.739
glycan array binding signal (z-score) [6]: 0.032
glycan array binding signal (z-score) [7]: -0.753
glycan array binding signal (z-score) [8]: 0.506
glycan array binding signal (z-score) [9]: -0.956
glycan array binding signal (z-score) (GlcNAc(b1-6)GalNAc): 2.45
glycan array binding signal (z-score) [10]: -0.129
glycan array binding signal (z-score) (Man(b1-4)GlcNAc): -0.77
glycan array binding signal (z-score) [11]: 0.268
glycan array binding signal (z-score) [12]: -0.521
glycan array binding signal (z-score) (Neu5Ac(a2-3)GalNAc): -0.492
glycan array binding signal (z-score) [13]: -0.776
glycan array binding signal (z-score) (Neu5Ac(a2-6)GalNAc): 2.81
glycan array binding signal (z-score) [14]: 2.42
glycan array binding signal (z-score) [15]: -0.851
glycan array binding signal (z-score) [16]: -0.867
